Measurements as given in patent US8129380B2, “Phthalazinone derivatives” (AstraZeneca AB, priority 2008, dated 2012).

The compounds below were run against Mammalian PARP, isolated from Hela cell nuclear extract (Homo sapiens, UniProt P09874) (assay: PARP inhibitory action (FlashPlate 3H-NAD assay)). Conditions: 30° C., NAD 5 μM.
Sequence of UniProt P09874 (P09874 whole entry): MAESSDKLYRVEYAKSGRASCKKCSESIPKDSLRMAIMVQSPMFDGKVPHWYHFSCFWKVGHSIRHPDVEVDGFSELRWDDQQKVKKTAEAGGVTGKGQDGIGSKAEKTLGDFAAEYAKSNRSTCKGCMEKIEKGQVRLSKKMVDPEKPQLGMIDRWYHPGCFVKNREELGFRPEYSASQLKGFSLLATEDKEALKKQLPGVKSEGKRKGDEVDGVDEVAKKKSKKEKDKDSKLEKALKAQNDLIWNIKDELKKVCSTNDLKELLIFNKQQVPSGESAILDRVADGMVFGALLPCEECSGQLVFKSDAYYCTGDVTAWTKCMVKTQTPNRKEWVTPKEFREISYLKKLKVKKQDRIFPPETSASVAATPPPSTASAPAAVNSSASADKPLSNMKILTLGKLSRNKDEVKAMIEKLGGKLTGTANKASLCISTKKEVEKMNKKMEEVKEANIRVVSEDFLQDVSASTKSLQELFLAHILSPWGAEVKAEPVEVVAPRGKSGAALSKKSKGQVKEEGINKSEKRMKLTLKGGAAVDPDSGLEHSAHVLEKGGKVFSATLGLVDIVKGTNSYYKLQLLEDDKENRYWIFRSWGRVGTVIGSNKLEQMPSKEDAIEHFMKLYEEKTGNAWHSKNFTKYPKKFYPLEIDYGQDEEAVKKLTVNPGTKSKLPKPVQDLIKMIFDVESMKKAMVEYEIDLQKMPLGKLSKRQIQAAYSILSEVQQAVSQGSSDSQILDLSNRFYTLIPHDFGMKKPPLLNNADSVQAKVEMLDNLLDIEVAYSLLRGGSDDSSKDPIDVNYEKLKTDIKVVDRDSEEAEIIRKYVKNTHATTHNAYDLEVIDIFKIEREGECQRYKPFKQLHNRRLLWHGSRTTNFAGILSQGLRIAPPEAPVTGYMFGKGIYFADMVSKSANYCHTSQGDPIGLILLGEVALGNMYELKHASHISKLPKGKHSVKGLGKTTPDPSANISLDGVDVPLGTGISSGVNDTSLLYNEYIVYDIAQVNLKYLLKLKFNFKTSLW
Type: biochemical
Experimental: In order to assess the inhibitory action of the compounds, the following assay was used to determine IC50 values.
The total assay volume per well was 40 μl.
After 10 minutes incubation at 30° C. the reactions were initiated by the addition of a 10 μl reaction mixture, containing NAD (5 μM), ^3H-NAD and 30 mer double stranded DNA-oligos. Designated positive and negative reaction wells were done in combination with compound wells (unknowns) in order to calculate % enzyme activities. The plates were then shaken for 2 minutes and incubated at 30° C. for 45 minutes.
Following the incubation, the reactions were quenched by the addition of 50 μl 30% acetic acid to each well. The plates were then shaken for 1 hour at room temperature.
The plates were transferred to a TopCount NXT (TRADE MARK) (Packard, UK) for scintillation counting. Values recorded are counts per minute (cpm) following a 30 second counting of each well.
The % enzyme activity for each compound is then calculated using the following equation: […]
IC50 values (the concentration at which 50% of the enzyme activity is inhibited) were calculated, which are determined over a range of different concentrations, normally from 10 μM down to 0.001 μM. Such IC50 values are used as comparative values to identify increased compound potencies.
`O=C(COC1CCN(C(=O)c2cc(Cc3n[nH]c(=O)c4ccccc34)ccc2F)CC1)N1CCCCC1` [Compound 113, 4-(4-fluoro-3-(4-(2-oxo-2-(piperidin-1-yl)ethoxy)piperidine-1-carbonyl)benzyl)phthalazin-1 (2H)-one] was tested, and the IC50 was 8 nM. In the case of `N#CCc1ccc(OC2CCN(C(=O)c3cc(Cc4n[nH]c(=O)c5ccccc45)ccc3F)CC2)cc1` [Compound 8f, 2-[4-[1-[2-fluoro-5-[(4-oxo-3H-phthalazin-1-yl)methyl]benzoyl]piperidin-4-yl]oxyphenyl]acetonitrile], the IC50 is reported as 2 nM. `CCOC1CCN(C(=O)c2cc(Cc3n[nH]c(=O)c4c(C)[nH]c(C)c34)ccc2F)CC1` [Compound 54, 4-(3-(4-ethoxypiperidine-1-carbonyl)-4-fluorobenzyl)-5,7-dimethyl-2,6-dihydro-1H-pyrrolo[3,4-d]pyridazin-1-one] gave an IC50 of 18 nM. `O=C(c1cc(Cc2n[nH]c(=O)c3ccccc23)ccc1F)N1CCC(OCC2CC2)CC1` [Compound 2g] was tested, and the IC50 was 4 nM. With `COC1CCN(C(=O)c2cc(Cc3n[nH]c(=O)c4ccc(Cl)cc34)ccc2F)CC1` [Compound 68, 6-chloro-4-(4-fluoro-3-(4-methoxypiperidine-1-carbonyl)benzyl)phthalazin-1(2H)-one] the IC50 was 24 nM. Compound `COC1CCN(C(=O)c2cc(Cc3n[nH]c(=O)c4c(C)[nH]c(C)c34)ccc2F)CC1` [Compound 58, 4-(4-fluoro-3-(4-methoxypiperidine-1-carbonyl)benzyl)-5,7-dimethyl-2,6-dihydro-1H-pyrrolo[3,4-d]pyridazin-1-one] has an IC50 of 19 nM. For `O=C(c1cc(Cc2n[nH]c(=O)c3ccccc23)ccc1F)N1CCC(Oc2ccncn2)CC1` [Compound 26a, 4-(4-fluoro-3-(4-(pyrimidin-4-yloxy)piperidine-1-carbonyl)benzyl)phthalazin-1(2H)-one], the IC50 was 4 nM. `COC1CCN(C(=O)c2cc(Cc3n[nH]c(=O)c4ccccc34)ccc2F)CC1` [Compound 2b, 4-(4-fluoro-3-(4-methoxypiperidine-1-carbonyl)benzyl)phthalazin-1(2H)-one] was tested, and the IC50 was 5 nM. Compound `COC1CCN(C(=O)c2cc(Cc3n[nH]c(=O)c4cccc(N)c34)ccc2F)CC1` [Compound 46, 5-amino-4-(4-fluoro-3-(4-methoxypiperidine-1-carbonyl)benzyl)phthalazin-1(2H)-one] has an IC50 of 11 nM. For `Cc1cnc(C)c(OC2CCN(C(=O)c3cc(Cc4n[nH]c(=O)c5ccccc45)ccc3F)CC2)n1` [Compound 26j], the IC50 was 5 nM. In the case of `CN(C)C(=O)COC1CCN(C(=O)c2cc(Cc3n[nH]c(=O)c4ccccc34)ccc2F)CC1` [Compound 83, 2-(1-(2-fluoro-5-((4-oxo-3,4-dihydrophthalazin-1-yl)methyl)benzoyl)piperidin-4-yloxy)-N,N-dimethylacetamide], the IC50 is reported as 14 nM. `COc1cccc2c(=O)[nH]nc(Cc3ccc(F)c(C(=O)N4CCC(OC)CC4)c3)c12` [Compound 126a, 4-(4-fluoro-3-(4-methoxypiperidine-1-carbonyl)benzyl)-5-methoxyphthalazin-1(2H)-one] was tested, and the IC50 was 6 nM. With `COc1ccccc1OC1CCN(C(=O)c2cc(Cc3n[nH]c(=O)c4ccccc34)ccc2F)CC1` [Compound 8d, 4-[[4-fluoro-3-[4-(2-methoxyphenoxy)piperidine-1-carbonyl]phenyl]methyl]-2H-phthalazin-1-one] the IC50 was 4 nM. `O=C(c1cc(Cc2n[nH]c(=O)c3ccccc23)ccn1)N1CCC(Oc2ccc(Cl)cc2)CC1` [Compound 6a] was tested, and the IC50 was 4 nM. `O=C(COC1CCN(C(=O)c2cc(Cc3n[nH]c(=O)c4ccccc34)ccc2F)CC1)N1CCOCC1` [Compound 77, 4-(4-fluoro-3-(4-(2-morpholino-2-oxoethoxy)piperidine-1-carbonyl)benzyl)phthalazin-1(2H)-one] gave an IC50 of 8 nM. `CC(C)(C)OC1CCN(C(=O)c2cc(Cc3n[nH]c(=O)c4ccccc34)ccn2)CC1` [Compound 73, 4-((2-(4-tert-butoxypiperidine-1-carbonyl)pyridin-4-yl)methyl)phthalazin-1(2H)-one] was tested, and the IC50 was 5 nM. Work on `CCOC1CCN(C(=O)c2cccc(Cc3n[nH]c(=O)c4cccc(Cl)c34)c2)CC1` [Compound 119b, 5-chloro-4-(3-(4-ethoxypiperidine-1-carbonyl)benzyl)phthalazin-1(2H)-one] yielded an IC50 of 13 nM. `CC(C)OC1CCN(C(=O)c2cccc(Cc3n[nH]c(=O)c4ccccc34)c2)CC1` [Compound 12] was tested, and the IC50 was 7 nM. `O=C(c1cccc(Cc2n[nH]c(=O)c3c(F)ccc(F)c23)c1)N1CCC(OCC2CC2)CC1` [Compound 4a] was tested, and the IC50 was 13 nM. For `O=C(c1cc(Cc2n[nH]c(=O)c3ccccc23)ccc1F)N1CCC(Oc2cccc(F)n2)CC1` [Compound 72b], the IC50 was 677 nM. Work on `CC(C)OC1CCN(C(=O)c2cc(Cc3n[nH]c(=O)c4ccccc34)ccc2F)CC1` [Compound 11, 4-(4-fluoro-3-(4-isopropoxypiperidine-1-carbonyl)benzyl)phthalazin-1(2H)-one] yielded an IC50 of 4 nM. In the case of `CN(C)CCOC1CCN(C(=O)c2cc(Cc3n[nH]c(=O)c4ccccc34)ccc2F)CC1` [Compound 86, 4-(3-(4-(2-(dimethylamino)ethoxy)piperidine-1-carbonyl)-4-fluorobenzyl)phthalazin-1(2H)-one], the IC50 is reported as 18 nM. Work on `O=C(c1cc(Cc2n[nH]c(=O)c3ccccc23)ccc1F)N1CCC(Oc2ccc(Cl)nc2)CC1` [Compound 26m] yielded an IC50 of 7 nM. Compound `Cc1nccnc1OC1CCN(C(=O)c2cc(Cc3n[nH]c(=O)c4ccccc34)ccc2F)CC1` [Compound 26h] has an IC50 of 3 nM. For `O=C(c1cc(Cc2n[nH]c(=O)c3ccccc23)ccc1F)N1CCC(OCc2ccccc2)CC1` [Compound 8e, 4-[[4-fluoro-3-(4-phenylmethoxypiperidine-1-carbonyl)phenyl]methyl]-2H-phthalazin-1-one], the IC50 was 5 nM. `O=C(c1cccc(Cc2n[nH]c(=O)c3c(F)ccc(F)c23)c1)N1CCC(Oc2ccccn2)CC1` [Compound 4b] gave an IC50 of 5 nM. `CCOC1CCN(C(=O)c2cccc(Cc3n[nH]c(=O)c4ccccc34)c2)CC1` [Compound 47a, 4-(3-(4-ethoxypiperidine-1-carbonyl)benzyl)phthalazin-1(2H)-one] showed an IC50 of 10 nM. Work on `O=C(c1cc(Cc2n[nH]c(=O)c3ccccc23)ccc1F)N1CCC(OCCN2CCOCC2)CC1` [Compound 80, 4-(4-fluoro-3-(4-(2-morpholinoethoxy)piperidine-1-carbonyl)benzyl)phthalazin-1(2H)-one] yielded an IC50 of 11 nM. `O=C(c1cc(Cc2n[nH]c(=O)c3ccccc23)ccc1F)N1CCC(OCCN2CCCCC2)CC1` [Compound 116, 4-(4-fluoro-3-(4-(2-(piperidin-1-yl)ethoxy)piperidine-1-carbonyl)benzyl)phthalazin-1(2H)-one] was tested, and the IC50 was 46 nM. With `N#Cc1ccnc(OC2CCN(C(=O)c3cc(Cc4n[nH]c(=O)c5ccccc45)ccc3F)CC2)c1` [Compound 26f] the IC50 was 5 nM. Work on `CCOC1CCN(C(=O)c2cc(Cc3n[nH]c(=O)c4ccccc34)ccc2F)CC1` [Compound 2f, 4-(3-(4-ethoxypiperidine-1-carbonyl)-4-fluorobenzyl)phthalazin-1(2H)-one] yielded an IC50 of 3 nM. With `COC1CCN(C(=O)c2cccc(Cc3n[nH]c(=O)c4c(C)[nH]c(C)c34)c2)CC1` [Compound 52a, 4-(3-(4-methoxypiperidine-1-carbonyl)benzyl)-5,7-dimethyl-2,6-dihydro-1H-pyrrolo[3,4-d]pyridazin-1-one] the IC50 was 152 nM.
